{"source": "the supplement of paper PMC10681739", "note": "Whole data set: some 4,100 sequences, median “arbitrary fluorescence units” near 780, cut for the highest 2% near 22,000. The list shows a part of the results."}
{"target": "T1, ETS1 (UniProt P14921)", "T1 sequence": "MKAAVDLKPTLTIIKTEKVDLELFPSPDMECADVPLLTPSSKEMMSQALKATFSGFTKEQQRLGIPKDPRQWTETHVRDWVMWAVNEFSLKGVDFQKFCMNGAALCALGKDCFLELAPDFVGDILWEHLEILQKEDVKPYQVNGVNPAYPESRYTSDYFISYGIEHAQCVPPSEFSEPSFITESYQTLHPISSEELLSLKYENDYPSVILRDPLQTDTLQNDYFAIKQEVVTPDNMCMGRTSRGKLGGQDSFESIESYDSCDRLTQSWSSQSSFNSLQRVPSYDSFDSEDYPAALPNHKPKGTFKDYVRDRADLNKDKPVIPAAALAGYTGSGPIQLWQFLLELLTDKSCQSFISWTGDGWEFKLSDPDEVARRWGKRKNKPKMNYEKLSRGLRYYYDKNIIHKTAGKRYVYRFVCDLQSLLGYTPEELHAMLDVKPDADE", "experiment": "ETS1 binding intensity (PBM fluorescence), ETS1 alone (arbitrary fluorescence units); higher = stronger binding", "settings": "ETS1 concentration 1 nM; RUNX1 concentration 0 nM", "protocol": "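gcPBM on 36-bp genomic-derived probes (partner site mutated) containing one ETS1 site and no RUNX1 site. Recombinant human ETS1 (1 nM) was incubated alone or with RUNX1 (25 nM) and detected by anti-ETS1 antibody fluorescence. Values are medians over 4 replicate spots (not normalised). The probes sit in constant array flanks that are not printed.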"}
{"sequence": "TGCAGCCGCCGCGTCCGGTCCAGCCCCAGGGCCATG", "ETS1 binding intensity": 5080}
{"sequence": "TCCCTTCCTCCTCCCTCAGCCATATACGGTGCTGTA", "ETS1 binding intensity": 1170}
{"sequence": "AGGCAAACAGGATGTTCCTCTCCCAAATGCAGACTT", "ETS1 binding intensity": 6900}
{"sequence": "AGTCAAACAGGATGTGGCTGGGGAGGCGGCTGTCAC", "ETS1 binding intensity": 11100}
{"sequence": "CTCCGTTAGGAAATACTATGCAGCCACGTCCAGCAT", "ETS1 binding intensity": 404}
{"sequence": "ACCGAAACTACGGCCCAGCAAAAAGGGAAGTAGGGG", "ETS1 binding intensity": 507}
{"sequence": "GGTTTTGCGCTCACAGCCGCCGGAAGTGGCTCCGTG", "ETS1 binding intensity": 4350}
{"sequence": "GCACCCGGCACTACTTCCCGACCCGCCTCCCCCGCC", "ETS1 binding intensity": 603}
{"sequence": "GACCCGCTCACAAGACCTGCCCCTTCCGGGTCCGTT", "ETS1 binding intensity": 618}
{"sequence": "GCCACCTCTTCCTGTGTTGCAAATCACAGGTCCACC", "ETS1 binding intensity": 6690}
{"sequence": "ACTACATTTCCCAGGAGGCTTCACGGTGAGCCTCCG", "ETS1 binding intensity": 393}
{"sequence": "CTGTAGGTTCGGCAGTAAACTCTGACTTCCTATTTA", "ETS1 binding intensity": 462}
{"sequence": "CGGCGGTGCCGGTAGCTCCACTTCCGCTCCGATCGC", "ETS1 binding intensity": 8130}
{"sequence": "GCAGGACTTCCTGTGTTGTGCTAACCCCAAATTACA", "ETS1 binding intensity": 22100}
{"sequence": "CAAGCCACTTAAGTGTCCTCTGTAACCGTCCGGGGG", "ETS1 binding intensity": 554}
{"sequence": "TCAGGAGCCACGGACGGGCGGGGCTTCCGGGAGCAA", "ETS1 binding intensity": 1170}
{"sequence": "CGAAGCCAGGAAATAAGGATAAATCACAGAAAGAAA", "ETS1 binding intensity": 1710}
{"sequence": "ACCCCCCAACTACAAGGCCCGTTTCCTGCCTCCCCA", "ETS1 binding intensity": 3000}
{"sequence": "GTTTATCACAGGACTCAAGTCTACATTTCCTGTCTC", "ETS1 binding intensity": 2180}
{"sequence": "CCCGTGCACCCCAGCCTTACGGGGAAGTGCTCAGGG", "ETS1 binding intensity": 419}
{"sequence": "CACCCAAGGATATGCTTTTTTTTGGCAAGTCACATC", "ETS1 binding intensity": 604}
{"sequence": "CAGGGAAGTTCGAACTGGGCGGGGCCCACCCCAGTT", "ETS1 binding intensity": 480}
{"sequence": "GTGTTCAGACGGAAGCGTTATTCAGTGGCCAGAGCA", "ETS1 binding intensity": 900}
{"sequence": "CTCAGGTTATCTAGGAAATCTACCGTACGCTAAAGT", "ETS1 binding intensity": 413}
{"sequence": "CAACAACCGGAAGTGGGGCGGGCCGTAGTACCCGCC", "ETS1 binding intensity": 35100}
{"sequence": "TGCAGCTTCCTCCCGCTGCTCCGCCCAGCGGATTCT", "ETS1 binding intensity": 2710}
{"sequence": "AAGCCCCGTAACAGCTCCCTTCCACCGGAAGCGTCC", "ETS1 binding intensity": 1590}
{"sequence": "ATACATACAGGATGACATTTGTCCTGTGAGCACCAG", "ETS1 binding intensity": 497}
{"sequence": "CTTATCACACGCCGCGAACGCCTTAACTTCCGGTCC", "ETS1 binding intensity": 7950}
{"sequence": "TATCAATAAGGAAGTACAATCACCAAACCCCAAGCC", "ETS1 binding intensity": 677}
{"sequence": "GAGGTGGTACCCCAGGCCGCGTTGACCGGAAAGTAG", "ETS1 binding intensity": 455}
{"sequence": "GCCAACAGTGCTTTCGCCCCGCTTCCTGCGCCCCGC", "ETS1 binding intensity": 1050}
{"sequence": "TGGGGACAGGAAATGTTTACTGCCTGTGACTTGCTG", "ETS1 binding intensity": 3460}
{"sequence": "CACTCCCCTCCCGAGGTCACACTTCCGGCGGCCACC", "ETS1 binding intensity": 7960}
{"sequence": "GCTGGGGCTGCCGCCATCATGGTGCGGAAGCTTAAG", "ETS1 binding intensity": 383}
{"sequence": "TAGGCAGGCAGGATGTGCCTATAAGCTACATGAATG", "ETS1 binding intensity": 2460}
{"sequence": "GGGCGGGTCAGCGGAAGTGAGGGCGGGTGAGGCTGG", "ETS1 binding intensity": 6120}
{"sequence": "CAGCTTCCGGGCTAATTAGCAGTCACGGTGTGCCGC", "ETS1 binding intensity": 19800}
{"sequence": "TGTATAACATCCTCATGTTCTGAGGGTGAGTTGAGC", "ETS1 binding intensity": 2030}
{"sequence": "CACCGGAAAAGGCAAGCGCGGCCGCGCGCTTGGCGC", "ETS1 binding intensity": 3740}
{"sequence": "GCCCTCACCGAAGTTCCTGCCCAACGACATCCGGGT", "ETS1 binding intensity": 2390}
{"sequence": "CTTGTGCAGCTGCTGTTCTCAGCATCCGCGGGCGGA", "ETS1 binding intensity": 331}
{"sequence": "ATCAAAGAACGGATATTGCTGTGACACCGAGGGGAC", "ETS1 binding intensity": 1980}
{"sequence": "CCATCCAGGAAGCTTATGGTGCAACAGCAGTGTGCC", "ETS1 binding intensity": 1190}
{"sequence": "ACACCCCAGGAAGTGGCAGAGACTACAACAAGTCAG", "ETS1 binding intensity": 2890}
{"sequence": "GCCAGGGCAGGAAGTTGCTAAGCGCCCCAGAGCAGG", "ETS1 binding intensity": 4990}
{"sequence": "GAAATCACATCCTTTTGCAAAATCACAGGTGTTTTG", "ETS1 binding intensity": 4830}
{"sequence": "TTGAGGGTTTTATAGCTTAACTTTTGCTTCCTGTGT", "ETS1 binding intensity": 597}
{"sequence": "CCATCCAGGAAGCTTATGGTGCGACTGCAGTGTGCC", "ETS1 binding intensity": 987}
{"sequence": "TGTGTCACTTCCCTATCTGTTTCGGTTGTTCACTCC", "ETS1 binding intensity": 1690}
{"sequence": "CATGCCCGTCCGAGCGCGCTGCTTCCGCCTTGCAGC", "ETS1 binding intensity": 1420}
{"sequence": "AGGTGCTTTGGCCTTTTTGTCCGGCAGGATGTGATA", "ETS1 binding intensity": 538}
{"sequence": "GCTGGGGCCCAGCCCGAGCCAGGCCTTCCTCCCCTC", "ETS1 binding intensity": 288}
{"sequence": "AGGTTGTAGTCGGTGACCTCCCAGTTCAGGAAGTCC", "ETS1 binding intensity": 450}
{"sequence": "CGCCCGAGCGCGTCACGTGTTCGTCAATTTCCTTCA", "ETS1 binding intensity": 369}
{"sequence": "GTCGGTTTTTCTCTGGCTAGCGGATGTTTGGCACCA", "ETS1 binding intensity": 809}
{"sequence": "TCTCCTTTCAGGAAGCTGCACCCAAAGCACCCTCAG", "ETS1 binding intensity": 680}
{"sequence": "ACAAGCCATTTCCCATTCTTGGGGCTGTAGAGGGGA", "ETS1 binding intensity": 1110}
{"sequence": "ACAGGAAGGAACTTGCTCAGGGCCACACCTCAGAGT", "ETS1 binding intensity": 375}
{"sequence": "TCTGGGACAGGAAAGACTTGTCGTTACTGCTGTTGA", "ETS1 binding intensity": 838}
{"sequence": "TCCGTGAGGTGCAGCAGGTCGGTAGGCGGGAAATGG", "ETS1 binding intensity": 378}
{"sequence": "AGTCAGGATGGCAACAGCGATCCCCGGCAACCCCAA", "ETS1 binding intensity": 384}
